Source: IntAct's records for PubMed 21346195

B1: Inner centromere protein (Homo sapiens), Q9NQS7 (parent)
chain: MGTTAPGPIHLLELCDQKLMEFLCNMDNKDLVWLEEIQEEAERMFTREFSKEPELMPKTPSQKNRRKKRRISYVQDENRDPIRRRLSRRKSRSSQLSSRRLRSKDSVEKLATVVGENGSVLRRVTRAAAAAAAATMALAAPSSPTPESPTMLTKKPEDNHTQCQLVPVVEIGISERQNAEQHVTQLMSTEPLPRTLSPTPASATAPTSQGIPTSDEESTPKKSKARILESITVSSLMATPQDPKGQGVGTGRSASKLRIAQVSPGPRDSPAFPDSPWRERVLAPILPDNFSTPTGSRTDSQSVRHSPIAPSSPSPQVLAQKYSLVAKQESVVRRASRRLAKKTAEEPAASGRIICHSYLERLLNVEVPQKVGSEQKEPPEEAEPVAAAEPEVPENNGNNSWPHNDTEIANSTPNPKPAASSPETPSAGQQEAKTDQADGPREPPQSARRKRSYKQAVSELDEEQHLEDEELQPPRSKTPSSPCPASKVVRPLRTFLHTVQRNQMLMTPTSAPRSVMKSFIKRNTPLRMDPKCSFVEKERQRLENLRRKEEAEQLRRQKVEEDKRRRLEEVKLKREERLRKVLQARERVEQMKEEKKKQIEQKFAQIDEKTEKAKEERLAEEKAKKKAAAKKMEEVEARRKQEEEARRLRWLQQEEEERRHQELLQKKKEEEQERLRKAAEAKRLAEQREQERREQERREQERREQERREQERREQERQLAEQERRREQERLQAERELQEREKALRLQKEQLQRELEEKKKKEEQQRLAERQLQEEQEKKAKEAAGASKALNVTVDVQSPACTSYQMTPQGHRAPPKINPDNYGMDLNSDDSTDDEAHPRKPIPTWARGTPLSQAIIHQYYHPPNLLELFGTILPLDLEDIFKKSKPRYHKRTSSAVWNSPPLQGARVPSSLAYSLKKH

Variants of: B1
Conditions: with cbx5_human CBX5, P45973

| Variant | effect of a mutation on the interaction |
| --- | --- |
| P167A;V169A;I171A | decreasing interaction strength |
